According to patent US12338279B2, “Selective and potent inhibitory antibodies of myostatin activation” (SCHOLAR ROCK, INC., priority 2022, dated 2025):

Legend:
total myostatin in serum [1] = assay: Circulating total myostatin in serum (acidification ELISA), dexamethasone model; type: in vivo, mouse; settings: as compared to apitegromab
Source text: Briefly, serum samples were acidified at low pH (e.g., pH ˜2.5) to dissociate the bound antibody from the immune complex and to convert all myostatin in the sample to the active form of growth factor (i.e., mature myostatin). Samples were then neutralized and assayed for the presence of mature myostatin on ELISA plates coated with anti-mature myostatin antibodies as capture reagents.

total myostatin in serum [2] = assay: Total serum myostatin (PD) in obese mice with or without semaglutide (Example 8); type: in vivo, mouse; settings: 0.1 to 3 mg/kg, alone or with semaglutide; FIG. 16B
Procedure: (§1) Male 19 week old C7/BL6 mice fed a high fat diet to induce obesity (DIO-B6-M mice, were evaluated for the effect of the combination of antibody and semaglutide on the exposure of the antibody to the target antigen (PK) and the total myostatin serum level (PD), as shown in Table 25. Animals were dosed with antibody intraperitoneally on days 0, 7, and 14 and were dosed with semaglutide subcutaneously daily throughout the study. Exposure of the antibody to immobilized promyostatin was determined by ELISA. Total serum myostatin was also measured by ELISA. The study concluded on day 22, when terminal bleeds were obtained.

[3] = test system: biotinylated murine pro-myostatin; assay: Biacore 8k SPR binding affinity, murine pro-myostatin; set-up: species or system mouse
Source text: (§2) The Biacore™ 8 k SPR system was utilized to evaluate the binding affinity of myostatin antibodies to biotinylated human, murine, and cyno pro-myostatin. Biotin CAPture kit and sensor chips (Cytiva) were utilized in these experiments to immobilize the various antigens, followed by flowing a range of concentrations of each of the test antibodies.

[4] = test system: free latent myostatin in serum; assay: Serum free latent myostatin (not bound by antibody); type: in vivo, mouse; settings: 0.1 to 3 mg/kg, 22 days, presence or absence of semaglutide; FIG. 16C
Source text: Serum clearance: As used herein, the term “serum clearance” or “clearance” refers to a relative pharmacokinetic/pharmacodynamic behavior pertaining to changes in serum concentrations (e.g., circulating levels) of an analyte (e.g., target protein or protein complex) over time. When the analyte being measured accumulates in the serum, it is said to have slow clearance. By contrast, when the analyte being measured is removed (“cleared”) rapidly from the serum, it is said to have fast clearance. Serum clearance in vivo may occur via multiple mechanisms, including, for example, targeted degradation, Fc-mediated internalization, etc. For example, serum clearance of circulating myostatin may be measured with an assay for determining binding of an antibody to free myostatin in serum (circulating myostatin that is not bound by the antibody). Such an assay may involve immobilizing a biotinylated capture antibody known to bind pro and latent myostatin, before adding a sample comprising myostatin to test the ability of the antibody to bind to the free myostatin and adding a detection antibody with a detectable marker.
In another embodiment, a pharmacodynamic assay, can be performed by measuring the binding of the antibodies to serum free latent myostatin (i.e., circulating latent myostatin that is not bound by the antibody). […]
as §1

[5] = target: T1, biotinylated cyno pro-myostatin (Macaca fascicularis, UniProt Q95J86); assay: Biacore 8k SPR binding affinity, cyno pro-myostatin; set-up: species or system cynomolgus monkey
T1 construct: biotin (label)
Source text: as §2

[6] = AC-SINS self-interaction (aggregation behavior); type: physicochemical; settings: cutoff shift >5 nm in plasmon wavelength
Summary of the method: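 Antibodies captured on gold nanoparticles coated with polyclonal anti-human-mAb antibodies; self-association shifts the plasmon absorbance maximum toward red. Value reported as plasmon wavelength, with 530 nm as unaggregated reference; shift >5 nm taken as self-interacting.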

[7] = test system: biotinylated human pro-myostatin; assay: Biacore 8k SPR binding affinity, human pro-myostatin
Source text: as §2

[8] = test system: male C57/BL6 mice on high fat diet; assay: Diet-induced obesity model, semaglutide with Ab109 or Ab141 (Example 5); type: in vivo, mouse; settings: antibody once weekly plus 0.040 mg/kg semaglutide daily, three weeks; FIGS. 13A-B
Procedure: Male C57/BL6 mice were a high-fat diet containing 60% fat then switched to a diet containing 45% fat. […] Body weight and body composition determined by qNMR were recorded at days 7, 14, and 21 after dosing. Gastrocnemius weight, inguinal, and perigonadal fat pad weights were recorded at the end of the study. Liver and terminal blood were collected to measure the levels of glucose and insulin.

[9] = test system: Pro + Furin (pro-myostatin); assay: Functional ELISA: inhibition of myostatin activation, Pro + Furin; type: biochemical; settings: Table 8
Procedure: To measure inhibitory potency of the novel antibodies against myostatin activation, an ELISA-based in vitro potency assay (“functional ELISA”) was carried out. First, each of the test antibodies was preincubated with recombinant human latent myostatin to let immune complexes form. Subsequently, mTLL-2 was added to the immune mixture to trigger the release of mature myostatin by proteolytic cleavage. If the test antibody is capable of blocking mTLL-2-induced activation, mature myostatin is not released from the latent myostatin complex. […] Following mTLL-2 treatment, the amount of free (released) mature myostatin in the presence of test antibodies was measured by ELISA, in which the plates were coated with ActRII-Fc fusion protein, which is a ligand trap serving as the capture reagent. Free mature myostatin present in the assay mixture was captured on the ELISA plate, and the amount of bound mature myostatin was measured by biotin-streptavidin-based detection reagents in 11 data points.

| Molecule | accumulation of total or latent myostatin in serum samples from dosed subjects (total myostatin in serum [1]) | serum total myostatin (PD) (total myostatin in serum [2]) | Ka [3] [M⁻¹ s⁻¹] | Kd (1/s) [3] [s⁻¹] | serum free latent myostatin (not bound by antibody) [4] | Ka [5] [M⁻¹ s⁻¹] | Kd [5] [s⁻¹] | aggregation behavior by AC-SINS [6] | Ka [7] [M⁻¹ s⁻¹] | Kd (1/s) [7] [s⁻¹] | fat mass loss (subcutaneous and epididymal adipose tissue weight) [8] | IC50 [9] [nM] | Kd [7] [pM] | Ka (1/Ms) [5] |
| --- | --- | --- | --- | --- | --- | --- | --- | --- | --- | --- | --- | --- | --- | --- |
| Ab141: anti-pro/latent myostatin antibody; CDRs in Tables 2d-f, variable domains Table 3, chains Table 4 (antibody) heavy: EVQLVESGGGLVQPGGSLRLSCAASGFTFSSYGMSWVRQAPGKGLELVASFTGSGGAYYPDSVKGRFTISRDNAKNSLYLQMNSLRAEDTAVYYCARDLLIRFLEWSHYYGMDVWGQGTTVTVSSASTKGPSVFPLAPCSRSTSESTAALGCLVKDYFPEPVTVSWNSGALTSGVHTFPAVLQSSGLYSLSSVVTVPSSSLGTKTYTCNVDHKPSNTKVDKRV[human IgG4 Fc with S228P (EU numbers) left out] light: DIVMTQSPLSLPVTPGEPASISCRSSQSLLHSSGHNFLHWYLQKPGQSPQLLIYEVSNRVSGVPDRFSGSGSGTDFTLKISRVEAEDVGVYYCMQQTQYPGTFGGGTKVEIKRTVAAPSVFIFPPSDEQLKSGTASVVCLLNNFYPREAKVQWKVDNALQSGNSQESVTEQDSKDSTYSLSSTLTLSKADYEKHKVYACEVTHQGLSSPVTKSFNRGEC | reduced accumulation of circulating latent myostatin | not affected by the presence of semaglutide | 2.93e+06 | 0.000156 | reduced below the level of quantitation | 2.8e+06 | 0.000103 | did not display aggregation behavior | 2.79e+06 | 0.000112 | increased fat mass loss as compared to Ab109 or Ab141 alone |  |  |  |
| Ab124: anti-pro/latent myostatin antibody; CDRs in Tables 2d-f, variable domains Table 3, chains Table 4 (antibody) heavy: QVQLQESGPGLVKPSQTLSLTCTVSGGSISSSPYSWSWIRQPPGKGLEWIGYVDLAGSTDYNPSLKSRVTMSVDTSKNQFSLKVNSVTAADTAVYYCARALSSRSSEWLLDQYTMDVWGQGTTVTVSSASTKGPSVFPLAPCSRSTSESTAALGCLVKDYFPEPVTVSWNSGALTSGVHTFPAVLQSSGLYSLSSVVTVPSSSLGTKTYTCNVDHKPSNTKVDKRV[human IgG4 Fc with S228P (EU numbers) left out] light: EIVMTQSPATLSLSPGERATLSCRASQSIGINLAWYQQKPGQAPRLLIYGVSNRATGIPARFSGSGSGTDFTLTISSLEPEDFAVYYCQQYGTARLTFGGGTKVEIKRTVAAPSVFIFPPSDEQLKSGTASVVCLLNNFYPREAKVQWKVDNALQSGNSQESVTEQDSKDSTYSLSSTLTLSKADYEKHKVYACEVTHQGLSSPVTKSFNRGEC |  |  | 139000 | 0.000454 |  |  |  |  | 1.54e+06 | 0.000285 |  | 1.08 | 1840 |  |
| Ab125: anti-pro/latent myostatin antibody; CDRs in Tables 2d-f, variable domains Table 3, chains Table 4 (antibody) heavy: EVQLVQSGAEVKKPGESLKISCKGSGNRISDYWMNWVRQVPGKGLEWMGNIYPGYSDATYNRKFKGQVTISADKSISTAYLQWSSLKASDTAIYYCARGRDGYNYFAAFDIWGQGTMVTVSSASTKGPSVFPLAPCSRSTSESTAALGCLVKDYFPEPVTVSWNSGALTSGVHTFPAVLQSSGLYSLSSVVTVPSSSLGTKTYTCNVDHKPSNTKVDKRV[human IgG4 Fc with S228P (EU numbers) left out] light: EIVLTQSPATLSLSPGERATLSCRASQSVASSYLAWYQQKPGQAPRLLIYDTSSRAAGIPARFSGSGSGTDFTLTISSLEPEDFAVYYCHQYGSSLTTFGGGTKVEIKRTVAAPSVFIFPPSDEQLKSGTASVVCLLNNFYPREAKVQWKVDNALQSGNSQESVTEQDSKDSTYSLSSTLTLSKADYEKHKVYACEVTHQGLSSPVTKSFNRGEC |  |  | 3.29e+06 | 0.000411 |  |  |  |  | 3.58e+06 | 0.000371 |  | 0.318 | 103 | 4.01 E+06 1/Ms |
